We go through 115 sequences from the BET-seq Pho4 binding data (Le et al. 2018).

This is one part of the list. Values were computed here from the reads of four pooled replicates and scatter widely.

This assay concerns the target T1, Pho4 (S. cerevisiae) (UniProt P07270).
T1 sequence: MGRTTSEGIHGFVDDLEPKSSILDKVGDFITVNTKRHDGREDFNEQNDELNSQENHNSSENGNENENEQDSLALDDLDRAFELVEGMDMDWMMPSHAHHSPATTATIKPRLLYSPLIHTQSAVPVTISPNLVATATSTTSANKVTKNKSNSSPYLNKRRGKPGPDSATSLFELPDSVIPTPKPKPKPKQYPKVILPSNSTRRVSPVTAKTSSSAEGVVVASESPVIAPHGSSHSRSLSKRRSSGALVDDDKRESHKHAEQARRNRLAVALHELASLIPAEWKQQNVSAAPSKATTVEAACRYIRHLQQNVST
Description: relative binding free energy (BET-seq); higher = weaker binding. The note with it: reference: library average.
On to TAGTTCACGTGTGTCG, for which the “relative binding free energy” value was found to be 0.27 kcal/mol. As for AGGGGCACGTGCTAGG, the “relative binding free energy” value is -0.24 kcal/mol. The value for TATCTCACGTGTTGTT was 0.12 kcal/mol; that for CTTTACACGTGTGTGT was 0.21 kcal/mol; that for TTAACCACGTGGTAGG was -0.09 kcal/mol. The value for TCATGCACGTGTGTTG was 0.04 kcal/mol. Next, ATTTGCACGTGGTTAC: 0 kcal/mol. Take ATTGTCACGTGCGGTT: the “relative binding free energy” value came out at 0.03 kcal/mol. Next, TTAGGCACGTGATTTT: 0.03 kcal/mol; GTGGTCACGTGTCATT: 0.12 kcal/mol; GGCGTCACGTGCTAGG: 0.02 kcal/mol. As for GAAGACACGTGGGTAT, the “relative binding free energy” value is -0.1 kcal/mol. Next, ACTGGCACGTGTGTTG: -0.12 kcal/mol; GTGACCACGTGTAAGT: 0.22 kcal/mol; TGTCGCACGTGTTATT: 0.03 kcal/mol. The value for GAGCGCACGTGAGGGT was 0.1 kcal/mol; that for GGTGACACGTGGACGT was -0.03 kcal/mol; that for CTAGGCACGTGTATAG was -0.02 kcal/mol. Consider GGTGTCACGTGGAGGA, for which the “relative binding free energy” value is 0.15 kcal/mol. With AGATGCACGTGGCAGG, the “relative binding free energy” value is -0.26 kcal/mol. The value for TCTTACACGTGTTAGG was 0.12 kcal/mol. Next, TAGTTCACGTGACGGA: 0.4 kcal/mol; CGAGGCACGTGTGCGT: -0.16 kcal/mol.

Consider GGGTCCACGTGTGGGG, for which the “relative binding free energy” value amounted to 0.17 kcal/mol. With TTTGGCACGTGTCATA, the “relative binding free energy” value is -0.21 kcal/mol. The value for GCGTTCACGTGTGGGA was 0.24 kcal/mol; that for CTTGTCACGTGATTGA was 0.22 kcal/mol. The value for GTTCTCACGTGGTTTT was 0.19 kcal/mol. Next, GCTATCACGTGGGGTT: 0.06 kcal/mol; GAGTACACGTGTATGT: 0.03 kcal/mol.

In the case of TACGGCACGTGGTGAT, the “relative binding free energy” value was -0.23 kcal/mol.

In the case of GGACACACGTGGAGGG, the “relative binding free energy” value is -0.09 kcal/mol. Regarding TGAGTCACGTGAATTT, the “relative binding free energy” value turned out to be 0.37 kcal/mol. As for AACCGCACGTGGGTGG, the “relative binding free energy” value was -0.29 kcal/mol. Next, GTTTGCACGTGGTGAT: 0.03 kcal/mol. Next, AATAGCACGTGGGGGT: -0.31 kcal/mol.

In the case of GATTTCACGTGACTGG, the “relative binding free energy” value is 0.35 kcal/mol. The value for TCAAGCACGTGGGTGT was -0.33 kcal/mol.

In the case of TAGGGCACGTGGTACT, the “relative binding free energy” value was -0.23 kcal/mol. The value for TTTCACACGTGAAGGT was 0.32 kcal/mol.

Consider TAGGCCACGTGGGGGC, for which the “relative binding free energy” value is -0.19 kcal/mol. Consider TGAGGCACGTGACGAT, for which the “relative binding free energy” value was 0 kcal/mol.

As for TAATACACGTGGTGGA, the “relative binding free energy” value was found to be 0.08 kcal/mol. The value for TATCTCACGTGGTATT was 0.08 kcal/mol.

As to TAGGGCACGTGGCATG, the “relative binding free energy” value is -0.26 kcal/mol. For GTAGGCACGTGGTGTG, the “relative binding free energy” value is -0.16 kcal/mol. The value for GACGGCACGTGTTAGG was 0.04 kcal/mol; that for GTTAACACGTGGTGAG was -0.08 kcal/mol; that for TTAGACACGTGGTGTG was 0.03 kcal/mol. The value for AAGGCCACGTGTGGTG was -0.1 kcal/mol; that for TGAAACACGTGGTGGG was 0.04 kcal/mol; that for GGGCACACGTGGGGTG was -0.25 kcal/mol.

For the sequence TGAGGCACGTGTTATG, the “relative binding free energy” value is -0.08 kcal/mol. The value for TTTAGCACGTGGATCG was 0.06 kcal/mol. The value for GTTTTCACGTGGAACA was 0.42 kcal/mol; that for TTTATCACGTGCTGAT was -0.02 kcal/mol. CGTGTCACGTGATGTT: the “relative binding free energy” value is 0.24 kcal/mol. The value for TATATCACGTGATGGA was 0.24 kcal/mol. Next, GTGTACACGTGAGTAA: 0.45 kcal/mol. The value for GAGTGCACGTGTAGTC was 0.09 kcal/mol; that for AAGTTCACGTGGGGTC was 0.26 kcal/mol; that for GTTACCACGTGAAGGG was 0.27 kcal/mol.

CCGGTCACGTGGGTGA: the “relative binding free energy” value is -0.13 kcal/mol.

In the case of ATTATCACGTGAGATG, the “relative binding free energy” value is 0.35 kcal/mol.

AAGAACACGTGGGGGA: the “relative binding free energy” value was -0.08 kcal/mol. The value for ATAGTCACGTGGTAGG was 0.02 kcal/mol; that for TTTATCACGTGATTCT was 0.07 kcal/mol. The value for GTGTACACGTGGGCGT was -0.06 kcal/mol. As for AGTCACACGTGTTTAG, the “relative binding free energy” value came out at 0.21 kcal/mol. The value for GTAGGCACGTGTGCAT was -0.01 kcal/mol; that for ATAGGCACGTGTGGTA was -0.17 kcal/mol; that for GCATGCACGTGGGGGA was -0.06 kcal/mol. The value for GATGTCACGTGAGTCG was 0.4 kcal/mol; that for GTGGACACGTGTAGCG was 0.13 kcal/mol. Next, GTACACACGTGTTGTA: 0.11 kcal/mol; GGATGCACGTGTGACT: 0.09 kcal/mol; TGATTCACGTGTGGAG: 0.27 kcal/mol.

With TATGTCACGTGTTTAT, the “relative binding free energy” value turned out to be 0.04 kcal/mol.

As to GCGATCACGTGTGGGT, the “relative binding free energy” value came to 0.15 kcal/mol. As for CTGGACACGTGGAAGG, the “relative binding free energy” value was -0.08 kcal/mol. Next, AGATTCACGTGTGTAC: 0.34 kcal/mol; TCGTCCACGTGTGTAT: 0.22 kcal/mol; ATCTTCACGTGGGTGA: 0.12 kcal/mol.

On to CGGGACACGTGTTATG, for which the “relative binding free energy” value was -0.04 kcal/mol. Next, GATAACACGTGATTGG: 0.21 kcal/mol; TAATGCACGTGTGGAT: -0.05 kcal/mol. Next, ATTGCCACGTGATGTG: 0.09 kcal/mol. The value for GTATTCACGTGGTCTA was 0.37 kcal/mol. On to GTATTCACGTGTGGGT, for which the “relative binding free energy” value turned out to be 0.37 kcal/mol. Take AAAAGCACGTGGGGAG: the “relative binding free energy” value is -0.17 kcal/mol. The value for AATGTCACGTGGGTCA was -0.05 kcal/mol; that for TATTCCACGTGGTGGT was 0.09 kcal/mol. Next, TTGGGCACGTGGCCTT: -0.21 kcal/mol; TTATGCACGTGAGTGA: 0.13 kcal/mol. The value for CAGGCCACGTGATGGG was 0.06 kcal/mol; that for ACTTTCACGTGGGCGG was 0.06 kcal/mol; that for TATACCACGTGGGGTA was -0.23 kcal/mol. As for GGCCTCACGTGGTAGG, the “relative binding free energy” value was found to be 0.28 kcal/mol. Take GTGAACACGTGGTATA: the “relative binding free energy” value amounted to 0.02 kcal/mol. The value for TCAGTCACGTGTATGT was 0.14 kcal/mol. Next, ATTGGCACGTGGTACA: -0.25 kcal/mol; TTACACACGTGAGTGG: 0.14 kcal/mol. Next, ATGTGCACGTGTAAAT: 0.06 kcal/mol.

Turning to AGGGACACGTGATTAT, the “relative binding free energy” value was determined as 0.21 kcal/mol. Next, TTTTTCACGTGGGGTT: 0.3 kcal/mol; CGATGCACGTGTGTAT: -0.03 kcal/mol; GAGTTCACGTGGGTCA: 0.14 kcal/mol.

On to AGGTGCACGTGAGGAG, for which the “relative binding free energy” value stood at 0.21 kcal/mol. For the sequence GGAGTCACGTGGTGAT, the “relative binding free energy” value was determined as 0.03 kcal/mol. Next, TATTCCACGTGTGGGC: 0.27 kcal/mol; TCTCTCACGTGGGGTT: 0.05 kcal/mol. As to GCGTCCACGTGTGGTT, the “relative binding free energy” value worked out at 0.06 kcal/mol. With TTTGACACGTGTCGAG, the “relative binding free energy” value is 0.13 kcal/mol.

Consider TGATTCACGTGCTGTT, for which the “relative binding free energy” value turned out to be 0.35 kcal/mol. The value for CTAGGCACGTGATGGA was 0.15 kcal/mol.
